Common to all, as to experiment: Confirmatory Screen for Target Class Profiling of Small Molecule Inhibitors of Methyltransferases (AID 1745852);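 note: inhibitor potency for blocking SAH production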
For assay [1], the target named is Catechol O-methyltransferase (Homo sapiens) (UniProt P21964). The settings on record: MTase-Glo luminescence, SAH detection, recombinant enzyme; measured here: COMT inhibition potency.
For assay [2], the target named is Histamine N-methyltransferase (Homo sapiens) (UniProt P50135). Particulars: MTase-Glo luminescence, SAH detection, recombinant enzyme; measured here: HNMT inhibition potency.
Assay [3] has as its target Nicotinamide N-methyltransferase (Homo sapiens) (UniProt P40261). Particulars: MTase-Glo luminescence, SAH detection, recombinant enzyme; measured here: NNMT inhibition potency.
Assay [4] deals with Phenylethanolamine N-methyltransferase (Homo sapiens) (UniProt P11086). Particulars: MTase-Glo luminescence, SAH detection, recombinant enzyme; measured here: PNMT inhibition potency.

Molecules are shown by their SMILES. The list shows a part of the results. Shown are side measurements of this screen, not its main read-out; they come without a call. The list favours compounds with an active or inconclusive main result. The note in brackets gives the kind of curve behind each potency; many fits are weak.
Tags give direction and shape of the fitted curve.

Sequence of UniProt P21964 (P21964 whole entry, looked up): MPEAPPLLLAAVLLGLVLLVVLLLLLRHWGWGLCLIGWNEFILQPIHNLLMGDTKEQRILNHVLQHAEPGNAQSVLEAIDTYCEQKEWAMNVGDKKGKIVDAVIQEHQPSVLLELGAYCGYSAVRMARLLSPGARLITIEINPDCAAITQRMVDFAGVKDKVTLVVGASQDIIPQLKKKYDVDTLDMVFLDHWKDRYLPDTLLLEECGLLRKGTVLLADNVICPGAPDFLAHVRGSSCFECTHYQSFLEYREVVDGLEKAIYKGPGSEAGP
Sequence of UniProt P40261 (P40261 whole entry, looked up): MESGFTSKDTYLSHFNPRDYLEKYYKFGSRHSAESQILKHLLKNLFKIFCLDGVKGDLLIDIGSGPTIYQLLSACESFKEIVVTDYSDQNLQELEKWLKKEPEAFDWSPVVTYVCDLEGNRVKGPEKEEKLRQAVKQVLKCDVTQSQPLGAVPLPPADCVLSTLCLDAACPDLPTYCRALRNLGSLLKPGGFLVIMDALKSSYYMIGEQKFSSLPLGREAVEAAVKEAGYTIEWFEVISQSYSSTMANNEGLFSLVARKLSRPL
Sequence of UniProt P50135 (P50135 whole entry, looked up): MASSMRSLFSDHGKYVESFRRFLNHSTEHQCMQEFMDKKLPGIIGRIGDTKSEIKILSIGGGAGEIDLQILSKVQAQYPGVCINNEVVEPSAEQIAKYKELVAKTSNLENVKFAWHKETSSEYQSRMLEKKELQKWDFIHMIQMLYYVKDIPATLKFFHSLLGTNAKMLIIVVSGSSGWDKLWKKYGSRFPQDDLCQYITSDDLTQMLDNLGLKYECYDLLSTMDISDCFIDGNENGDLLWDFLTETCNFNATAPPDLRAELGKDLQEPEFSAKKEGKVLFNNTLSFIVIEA
Sequence of UniProt P11086 (P11086 whole entry, looked up): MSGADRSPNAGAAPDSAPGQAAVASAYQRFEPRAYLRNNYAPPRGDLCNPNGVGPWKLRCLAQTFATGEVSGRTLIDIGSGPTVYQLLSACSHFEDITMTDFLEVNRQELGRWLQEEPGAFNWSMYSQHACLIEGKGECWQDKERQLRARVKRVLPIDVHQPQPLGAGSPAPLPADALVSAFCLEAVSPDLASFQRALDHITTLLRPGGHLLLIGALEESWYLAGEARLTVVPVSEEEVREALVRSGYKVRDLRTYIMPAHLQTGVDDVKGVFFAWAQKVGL

As for `CC[N+]1(C/C2=C/CCCCCC2)CCC(NC(=O)C2c3cc(Cl)ccc3Oc3ccc(Cl)cc32)CC1` (centres undefined), the IC50 in assay [1] was 21.5 µM [falling, partial curve]; in assay [2], 24.1 µM [falling, partial curve]; in assay [3] it was 21.5 µM [falling, partial curve, poor fit].

As to `CC(C)(C)c1ccc(-c2nc3ccccc3[nH]2)cc1`, the IC50 is 9.37 µM [falling, partial curve] in assay [1]; 10.5 µM [falling, partial curve] in assay [2]; 9.37 µM [falling, partial curve] in assay [3]; 9.37 µM [falling, partial curve] in assay [4].

Consider `CC1=CC(=O)CC(C)(C)C1CCC(C)O[C@@H]1O[C@H](CO[C@@H]2OC[C@@H](O)[C@H](O)[C@H]2O)[C@@H](O)[C@H](O)[C@H]1O` (some centres undefined), for which the IC50 in assay [1] is 5.27 µM [falling, partial curve].

For `C=C1C(=O)OC2/C=C(/C)C3=CC(=O)C(C)(CC(OC(=O)/C(C)=C/COC(C)=O)C12)O3` (centres undefined), the IC50 in assay [1] is 0.663 µM [falling, full curve].

For `C=C(C(=O)O)[C@@H]1CC[C@@]2(C)CC[C@H](O)[C@@]2(C(C)=O)C1`, the IC50 in assay [1] was 19.2 µM [falling, partial curve].

As to `C=C1C(=O)OC[C@@H]1C/C=C(\C)CC1CC(C)C(=O)O1` (some centres undefined), the IC50 in assay [1] was 3.41 µM [falling, full curve].

With `Cc1ccc(C)c(N2CCN(C(=O)c3ccc4c(=O)[nH]c5c(C(=O)NC(C)C)sc(=S)n5c4c3)CC2)c1`, the 50% inhibitory concentration (IC50) is 24.1 µM [falling, partial curve] in assay [1]; 48.2 µM [falling, partial curve, poor fit] in assay [2]; 21.5 µM [falling, partial curve] in assay [3].

The record behind these values is PubChem BioAssay (NCATS).
